Assay results taken from patent US8741307B2, “Hybrid prokaryotic-eukaryotic tubulins and use thereof” (Trustees of Dartmouth College, priority 2009, dated 2014).

Legend:
[1] = target: T1, Eg5 (a kinesin-5) motor domain (Homo sapiens, UniProt P52732); experiment: Stopped-flow MANT-ATP binding kinetics of kinesin; format: biochemical; conditions: fluorescent MANT-ATP, Eg5 in presence of the tubulin preparation
T1 construct: When the Eg5 (a kinesin-5) motor domain was mixed in a 1:1 stoichiometric ratio with HtubA/B
T1 sequence (P52732 18-359 limits assumed): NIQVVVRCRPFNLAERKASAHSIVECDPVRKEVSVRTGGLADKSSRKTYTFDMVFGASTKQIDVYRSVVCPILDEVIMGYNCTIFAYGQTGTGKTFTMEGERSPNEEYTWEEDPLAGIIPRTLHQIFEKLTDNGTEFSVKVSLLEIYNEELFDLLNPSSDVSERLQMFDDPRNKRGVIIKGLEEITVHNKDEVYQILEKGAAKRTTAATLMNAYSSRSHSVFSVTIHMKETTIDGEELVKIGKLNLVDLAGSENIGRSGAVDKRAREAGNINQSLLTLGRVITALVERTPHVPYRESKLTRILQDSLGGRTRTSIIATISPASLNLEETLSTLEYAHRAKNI
Source text: The Eg5-HtubA/B complex was rapidly mixed with fluorescent MANT-ATP in a stopped-flow instrument. This experiment was designed to monitor the kinetics of ATP binding to kinesin in the absence and presence of HtubA/B. In the absence of HtubA/B, the rate of ATP binding was 0.5-1 sec−1 and in the presence of eukaryotic microtubules, the rate of ATP binding was 25-30 sec−1. When the kinesin-HtubA/B complex was mixed with MANT-ATP, a rate of ATP binding of 265±14 sec−1 was observed.

[2] = target: T1, Eg5 (a kinesin-5) motor domain; experiment: Gel filtration chromatography of Eg5 motor domain mixed 1:1 with HtubA/B; format: binding

B1: HtubA/B: Hybrid bacterial-bovine tubulin heterodimer of HtubA (thioredoxin- and His-tagged) and HtubB (His-tagged) (protein)
chain 1: MKVNNTIVVSIGQAGNQIAASFWKTVCLEHGIDPLTGQTAPGVAPRGNWSSFFSKLGESSSGSYVPRAIMVDLEPSVIDNVKATSGSLFNPANLISRTEGAGGNFAVGYLGAGREVLPEVMSRLDYEIDKCDNVGGIIVLHAIGGGTGSGFGALLISSLREEYPDIPVLSCAVLPSPQVSSVVTEPYNTVFALHQLVENADACLIFDNEALFDLAHRKWNIESPTVDDLNLLITEALAGITASMRFSGFLTVEITLRELLTNLVPQPRLHFLMCAFAPLTPPDRSKFEELGIEEMIKSLFDNGSVFAACSPMEGRFLSTAVLYRGIMEDKPLADAALAAMREKLPLTEWIPTAFKIGYVEQPGISHRKSMVLLANNTEIARVLDRICHNFDKLWQRKAFANWYLNEGMDEMEITELRSNANDLVSEYQQAQDSGAKAKVQDSAGDTGMRAAAAGVSDDARGSMSLRDLVDRRR
chain 2: VREILSIHVGQCGNQIADSFWRLALREHGLTEAGTLKEGSNAAANSNMEVFFHKVRDGKYVPRAVLVDLEPGVIARIEGGDMSQLFDESSIVRKIPGAANNWARGHYTEGEKVIDQIMNVIDSAVEKTKGLQGFLMTHSIGGGSGSGLGSLILERLRQAYPKKRIFTFSVVPSPLISDSAVEPYNAILTLHTILENADGAVLLDNEALFRIAKAKLNRSPNYMDLNNIIALIVSSVTASLRFPGKLNTDLSEFVTNLVPYPRGHFLTASFAPMRGAGQEGQVRTNFPDLARETFAQDNFTAAIDWQQGVYLAASALFRGDVKAKDVDENMATIRKSLNYASYMPASGGLKLGYAETAPEGFASSGLALVNHTGIAAVFERLIAQFDIMYAKRAYTHWYVGEGVEEGEMSEAREDIAALEKDYREVG
modifications: left off: large carriers; small tags and cut ends
rate of ATP binding to kinesin [1]: 265 ± 14 s⁻¹ | kinesin binding to HtubA/B dimer (elution of complex) ([2]; 1:1 stoichiometric ratio, absence of additional salt and ATP): eluted from the column at an apparent molecular weight of a trimeric complex | kinesin binding to HtubA/B complex after adding salt and ATP ([2]; additional salt and ATP added to Eg5-HtubA/B complex): dissociated
